The source gives no read counts; variants with many changes may rest on few reads.
B1: LINE1-full (parent)
chain: UACGUAGGUGGUUUUCCCCUGAUAGUGCUAAGGGGGCCUGGAAGUUUGGACUGGGCAGAGCUCAACACAGCGUGGCAAAGUGGCUGUGGCUAGACUGCCUCUCUGGAUUCCUCGUCACUCAGCAGGGCAUCUCUGAGAGAAAUGCC

Variants of: B1
Assay: self-cleavage, relative activity (ratio to wild type); higher = more cleavage; in vitro, sequencing; the parent is a self-cleaving ribozyme

Variant	self-cleavage
A22U A94U A121C	0.41
U23A G40A A65U U85A	0.02
U23C C61G U143C	0.18
A22U U62C A142G	0.09
A22U A42G U132C A142G	1.84
A22U U104C A140G	1.61
U23C A43G U81C	1.93
A22U A78G G125A	1.53
U23C A107G C128U	1.73
U23C A43G A121G	1.72
A22U G60U C128U	0.01
A22U C84U U130C A136G	0.16
A22G U52C U102C	1.44
U23A U45G C76G U134C A140U	2.58
U23A G34A U112C	1.42
U23A A50U A121G	1.67
A22G U23C A77U	2.12
A22G U39C G54U A78U U119C	1.12
A22U A142G U143C	1.27
A22U A42G A50G C56U A65G G122A A136G	0.06
U23A A67U A77U	0.14

Variant	self-cleavage
U23A G35A U87C U109A	0.08
U23C A31G G53U	1.17
A22U U47C A140U	0.52
U23A A31C A77U U104A U108C	0.97
A22G U52C U100A	0.92
A22G U108A U115C	0.99
A22U U47A U62C A129G A138G	0.05
U23C A79U U134C	2.35
U23A A50C U108C A141G	0.57
A22U A64G U81A	0.34
A22G U85C U109A G139A	0.18
A22G U46G G89A	0.13
A22U U39C U46C A142G	0.54
A22U G97A U104C A117G	0.25
A22U A43G A64U U102C A138G	0.15
A22U G34A A69U A78U A117G	0.09
A22G U62C A65C U132A	0.17
A22U A78G A129G G137U A140U	2.22
A22G U26C C38U U130C A140U	1.61
U23A A69U A94G A129G	0
A22G U73C U132A	0.92

Variant	self-cleavage
A22G U26A C56U A129G	0.12
U23C A107G A121U U130C	1.38
A22G U73C U130C A141G	2.3
A22U A69U C120A	0.07
U23C A57G U62A U132A	0
A22U U29C A107G	1.62
U23A A107G A124G	0.84
A22G U62C A79G U112C	0.51
U23A A42U U46C	1.47
U23C A77G A78G	2.27
A22G U73C U91C	0.71
A22U A67U A117U A121G	0.29
U23A U62C A107G A138G	0.24
A22U A64U A67G A77G A78C	0
A22G U26A A59G U73A	0.06
U23A A50U U81C U132A	1.25
U23A A30G A64G A138G A140U	0.81
U23A U39C U102C A124U U134C	1.24
U23C A43G A77G U104A	0.85
A22G U47C U52A G105C	1.7
U23A U26C U39C	0.61

Variant	self-cleavage
A22G U62C A64U A136G	0.13
A22G U39A A78U U100G	2.65
A22G U62C A92U	0.35
U23C A142G U143A	1.1
A22G U39A A50G G93A	0.14
A22U C71U A141G	1.49
A22G U45C A64U U96G	0.46
A22G U108C A121U	1.09
A22G U73A U87A U91C	0.02
A22U G40U U87C A140U	0.21
A22G U134A U143C	0.92
U23A A77G C98U	0.79
U23C A94G U130C	0.32
U23C A64U U130C A138G	1.12
U23C A77U A121G U132C	1.84
A22G U23A U85C A117U	0.82
A22G U23C U45C U104A	0
A22U A67G U96C G127U	0.12
A22U U45A U112C A141G	1.59
A22G U108C A129U	0.66

From the RNAGym collection of RNA variant scans (doi:10.7554/elife.90254)
